Test results taken from PubChem BioAssay AID1461 (National Center for Advancing Translational Sciences (NCATS), 2008).
Out of some 220,000 compounds screened, about 2,300 (1%) were called active. The inconclusive results got no clear call from the source; some entries with a clear call stand among them for comparison. Calls come from the whole dose curve; as a rule, active = well fitted inhibition curve with a large enough effect; inconclusive = small, poorly fitted or top-dose-only effect, or effect the other way; inactive = no such curve, though single readings can be large or run the other way. Potencies of inconclusive entries are left out as doubtful fits.

These molecules were tested against Neuropeptide S receptor (Homo sapiens) (UniProt Q6W5P4) (assay: qHTS Assay for Antagonists of the Neuropeptide S Receptor: cAMP Signal Transduction). Conditions: CHO-NPSR cells, cAMP TR-FRET, antagonist mode; activity change, negative = inhibition: at 38.3 µM (top of the series) unless noted.
Chain of UniProt Q6W5P4 (Q6W5P4 whole entry, looked up): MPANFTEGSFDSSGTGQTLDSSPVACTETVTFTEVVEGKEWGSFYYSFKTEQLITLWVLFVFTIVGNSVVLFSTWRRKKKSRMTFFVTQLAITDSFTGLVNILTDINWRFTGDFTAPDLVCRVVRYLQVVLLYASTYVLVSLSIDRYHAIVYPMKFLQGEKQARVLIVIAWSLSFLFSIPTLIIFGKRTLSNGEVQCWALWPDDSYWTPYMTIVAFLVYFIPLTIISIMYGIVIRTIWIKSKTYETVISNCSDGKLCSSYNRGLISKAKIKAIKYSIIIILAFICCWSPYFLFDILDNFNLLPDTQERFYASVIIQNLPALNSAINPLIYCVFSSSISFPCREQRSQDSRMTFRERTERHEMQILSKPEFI
% is set by controls: 0 for no effect and ±100 for the full control effect; potency is the fitted concentration of half-maximal effect; tags give direction and shape of the fitted curve.
Note: nearly all actives have a fitted effect of over 50% in size.

Structure (SMILES)	Potency	activity change, negative = inhibition
COC(=O)c1sccc1NC(=O)c1cc2c(s1)CCCC2	inconclusive [inhibitor, partial curve, poor fit]	–
CCOc1ccc(NC(=S)N(Cc2ccc(Cl)cc2)Cc2ccco2)cc1	inconclusive [inhibitor, partial curve]	–
Fc1ccc(Nc2nc(NCc3ccco3)c3ccccc3n2)cc1	inconclusive [inhibitor, single point]	–
CCOC(=O)c1cccc(NC(=O)CSc2nnnn2C)c1	–	inactive: -6.12% [at 46.1 µM]
Cc1cc(C)n(CC(O)Cn2c3ccc(Br)cc3c3cc(Br)ccc32)c(=O)n1 (stereo not drawn)	inconclusive [inhibitor, single point]	–
COc1ccc(-c2nc(C#N)c(NCc3ccccc3Cl)o2)cc1OC	–	inactive: -10.2% [at 46.1 µM]
CCN(CC)C(=O)C1CCCN(Cc2ccccc2F)C1 (stereo not drawn)	–	inactive: 0.696% [at 46.1 µM]
O=C(Nc1nc2ccccc2n1CCN1CCOCC1)c1cn(-c2ccccc2)nc1-c1ccccc1	inconclusive [inhibitor, partial curve]	–
Clc1ccc2nc(N3CCNCC3)nc(-c3ccccc3)c2c1	inconclusive [inhibitor, single point]	–
CC(C)(C)C(=O)C(Cl)C(=O)Nc1ccccc1 (stereo not drawn)	–	inactive: -19.5%
COc1ccc(CC(=O)N2CC(=O)N(CCc3ccccc3)C(=O)C2)cc1	–	inactive: -4.35% [at 46.1 µM]
CC(=O)NC(=S)NNC(=O)CCc1ccccc1	–	inactive: 5.26%
Cc1ccc(-n2nc3ccc(NC(=O)c4ccc5c(c4)OCO5)cc3n2)cc1	–	inactive: -15.3% [at 46.1 µM]
COC(CNC(=O)c1ccc2c3c(onc13)-c1ccccc1C2=O)OC	inconclusive [inhibitor, single point]	–
CN(C)c1ccc(/C=N/NC(=S)NCc2ccco2)cc1	–	inactive: -30.3%
Cn1c(=O)cc(SCC(=O)NCCN2CCN(c3ccccc3F)CC2)c2cc(Cl)ccc21	inconclusive [inhibitor, single point]	–
CC(C)(C)c1cc(C(=O)NNc2cc(C(F)(F)F)ccc2Cl)n(Cc2ccccc2)n1	inconclusive [activator, single point]	–
CCC(Cc1ccccc1)n1c(=S)[nH]c2ccccc2c1=O (stereo not drawn)	inconclusive [inhibitor, single point]	–
Cc1ccc(C2=Nc3ccccc3SC(c3cccc([N+](=O)[O-])c3)C2)cc1 (stereo not drawn)	–	inactive: 59.8%
COc1cc(CNCc2ccccc2)c(Br)cc1OC1CCCC1	inconclusive [inhibitor, single point]	–
CC(C)n1cc(-c2nc(C(=O)NN)cs2)c(=O)n(Cc2ccccc2)c1=O	inconclusive [activator, full curve]	–
COc1ccc(-c2cn3cc(C)ccc3n2)cc1OC	–	inactive: -1.74% [at 46.1 µM]
C=CCOc1c(Cl)cc(CNc2ccc(C)c(Cl)c2)cc1OC	inconclusive [activator, full curve, poor fit]	–
CCSC1=NC2(CCCCC2)Nc2sc3c(c21)CCCC3	inconclusive [inhibitor, single point]	–
CC(/C=N/NC(=O)c1ccco1)=C\c1ccccc1	–	inactive: -31.7%

Structure (SMILES)	Potency	activity change, negative = inhibition
CC(C)(C)n1nnnc1C(c1ccc(C(F)(F)F)cc1)N(Cc1ccccc1)Cc1ccco1 (stereo not drawn)	inconclusive [inhibitor, partial curve]	–
CN(c1ccc(C(=O)Nc2nccs2)cc1)S(=O)(=O)c1ccccc1	inconclusive [inhibitor, single point]	–
O=C(Nc1ccc2oc(-c3ccccc3)nc2c1)c1cccs1	inconclusive [inhibitor, single point]	–
Oc1c(CN2CCCCC2)cc(Br)c2cccnc12	inconclusive [inhibitor, single point]	–
O=C(OCc1ccccc1)N1CCOCCOCCN(C(=O)OCc2ccccc2)CCOCCOCC1	inconclusive [inhibitor, single point]	–
CS(=O)(=O)N(Cc1ccc(C(=O)NN=C2CCCC2)cc1)c1ccccc1	–	inactive: 10.3%
CCC(C)(C)NC(=O)c1ccc2c(c1)S(=O)(=O)c1ccccc1C2=O	inconclusive [inhibitor, partial curve, poor fit]	–
Cc1ccc(C)c(S(=O)(=O)N/N=C2/CCCc3ccccc32)c1	inconclusive [inhibitor, single point]	–
O=C(COC(=O)c1cccc(Br)c1)Nc1cccc2c1C(=O)c1ccccc1C2=O	inconclusive [activator, single point]	–
O=C(Nc1ccon1)c1cnc2sccn2c1=O	–	inactive: -0.742% [at 46.1 µM]
CC(C)(C)c1nc2c(C#N)c(-c3ccc(Cl)cc3)ccn2n1	inconclusive [inhibitor, single point]	–
CCOC(=O)c1c(NC(=O)Cc2cccs2)sc2c1CCCC2	inconclusive [inhibitor, single point]	–
O=C(CCl)N1c2ccccc2OCC1c1ccccc1 (stereo not drawn)	inconclusive [inhibitor, single point]	–
Sc1oc(-c2ccccc2)cc1C=Nc1ccccc1	–	inactive: -19.2% [at 46.1 µM]
Cc1ccc2c(c1)cc(CN(Cc1ccco1)C(=O)COc1ccccc1)c1nnnn12	inconclusive [inhibitor, single point]	–
Cc1cccc(C)c1NS(=O)(=O)c1ccc(NC(=O)c2ccc(Cl)c([N+](=O)[O-])c2)cc1	inconclusive [inhibitor, single point]	–
Cc1ccc(-c2cc(-c3ccccc3)c(C#N)c(Br)n2)cc1	inconclusive [inhibitor, single point]	–
c1ccc(-c2n[nH]c3ccccc23)cc1	–	inactive: 9.45% [at 46.1 µM]
O=C(Nc1ccc(Br)cc1F)C1CCN(c2nnc(-n3cccc3)s2)CC1	inconclusive [inhibitor, single point]	–
CCOC(=O)N1CCN(S(=O)(=O)c2ccc(C(=O)NNc3nc4c(C)cc(C)cc4s3)cc2)CC1	–	inactive: -15.9%
Cc1cccc(SCc2noc(C(=O)NC(C)C)c2C(=O)O)c1	–	inactive: -2.95% [at 46.1 µM]
CCSc1nnc(NC(=O)c2nc3nc(C)cc(C)n3n2)s1	–	inactive: -1.33%
Cc1cc(N2CCN(c3ccccc3)CC2)n2cc(-c3ccccc3)nc2n1	inconclusive [inhibitor, partial curve]	–
COc1ccc(C(=O)NCc2cccnc2)cc1OC	inconclusive [inhibitor, partial curve]	–
COc1ccc(N)c2c1C(=O)c1ccccc1C2=O	active: 12.6 µM	–

Structure (SMILES)	Potency	activity change, negative = inhibition
O=C(Nc1nc(-c2ccccc2)cs1)c1ccccc1NS(=O)(=O)c1ccc(F)cc1	inconclusive [inhibitor, single point]	–
O=C(N/N=C/c1ccc(O)cc1)c1ccc(NC(=O)c2ccccc2Br)cc1	inconclusive [inhibitor, single point]	–
O=C(COC(=O)c1ccco1)Nc1ccc(Br)cc1	–	inactive: 2.35% [at 46.1 µM]
NS(=O)(=O)c1ccc(NC(=O)COC(=O)c2cn(-c3ccccc3)nc2-c2ccc(F)cc2)cc1	–	inactive: -20.1%
O=C(CSc1nc2ccccc2o1)Nc1ccccc1N1CCCCCC1	inconclusive [inhibitor, partial curve]	–
COc1cccc(CSc2nnc(C(F)(F)F)n2Cc2ccc(F)cc2)c1	inconclusive [inhibitor, partial curve]	–
C/C(=N\Nc1ccc(C(=O)O)cc1)c1ccc2c(c1)Nc1ccccc1S2	inconclusive [activator, single point]	–
CCn1c(=NC(=O)c2cccc(N3C(=O)CCC3=O)c2)sc2c(OC)ccc(OC)c21	inconclusive [activator, single point]	–
COc1ccc(N(CC(=O)NCCSCc2c(F)cccc2Cl)S(C)(=O)=O)cc1OC	inconclusive [inhibitor, single point]	–
CCn1c2c(c3cc(Br)ccc31)CCC/C2=N\O	–	inactive: 22.1% [at 46.1 µM]
C=C(CC1([C@@H](NP(=O)(c2ccccc2)c2ccccc2)[C@H]2C[C@@H]2CCCC)CC1)c1ccccc1	inconclusive [inhibitor, single point]	–
Cc1ccccc1C(=O)Nc1ccc(-c2nc3ccc(C(=O)c4ccccc4)cc3[nH]2)cc1	–	inactive: -23% [at 46.1 µM]
CN(C)c1ccc(NC(=O)c2sc(SCC(=O)Nc3nccs3)nc2N)cc1	inconclusive [inhibitor, single point]	–
CCOc1cc(/C=C\[N+](=O)[O-])ccc1OCC(=O)N1CCOCC1	–	inactive: 5.54%
CCc1ccc(-c2nc(CN3CCC(C(=O)N4CCN(c5ccccn5)CC4)CC3)c(C)o2)cc1	inconclusive [inhibitor, single point]	–
O=C(NNc1nc2ccccc2s1)c1ccccc1F	–	inactive: -0.589% [at 46.1 µM]
CCN(CC)C(=O)CSC1=N/C(=C/c2ccco2)C(=O)N1c1ccc(OC)c(Cl)c1	inconclusive [inhibitor, partial curve]	–
Cc1ccc(-c2nc3ncccc3o2)cc1NC(=O)COc1ccccc1	–	inactive: -8.3% [at 46.1 µM]
CC(/C=C1\SC(=S)N(CC(=O)N2CCN(c3ccccc3)CC2)C1=O)=C\c1ccccc1	–	inactive: -1.54%
CCCCCCC(=O)N(O)C1CC(=O)N(c2ccc(F)cc2)C1=O (stereo not drawn)	–	inactive: -10.7%
CCOc1ccc(NC(=O)CCS(=O)(=O)c2ccc3c(c2)CCCN3C(C)=O)cc1	inconclusive [inhibitor, single point]	–
CCOC(=O)c1cnc2ccc(C)cc2c1Sc1ccc(F)cc1	inconclusive [inhibitor, single point]	–
CCN(c1ccc2c(c1)OCO2)S(=O)(=O)c1cc(Br)cc2c1N(C(=O)C1CC1)CC2	inconclusive [inhibitor, partial curve, poor fit]	–
